Laboratory results as given in PubChem BioAssay AID1508624 (National Center for Advancing Translational Sciences (NCATS), 2021).
Among all 48,000 compounds or so, about 120 (0.25%) were called active. Another 4% or so got no clear call; they are omitted. Calls come from the whole dose curve; as a rule, active = well fitted activation curve with a large enough effect; inconclusive = small, poorly fitted or top-dose-only effect, or another doubt; inactive = no such curve, though single readings can be large or run the other way. Some of the results follow.

Test: Primary qHTS for Identification of Small Molecule Activators of Huntingtin-Antisense Promoter Activity; note: nearly all actives have a fitted effect of over 55% in size
Conditions: HEK293 HTT-AS promoter firefly luciferase reporter (activity 0% = vehicle and -100% = no light), 24 h; series mostly up to 57.5 µM; activity change, positive = activation: at the top concentration
In short: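 HEK293 Fluc reporter, 2,500 cells/well, 24 h pre-culture; cpds up to 57.5 uM final, 24 h 37 degrees C; Dual-Glo, 10 min RT; normalized vehicle = 0%, zero RLU = -100%.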

Activity change, positive = activation, inactive:
COc1cccc(CNC(=O)C2CCN(c3nnc(-n4c(C)ccc4C)s3)CC2)c1OC 4.42%, CC(=O)c1cc2c(cc1N/C(=N/S(=O)(=O)c1ccc(C)cc1)c1ccc(F)cc1)OCO2 -22.4%, CC(C)CCNC(=O)CN1C(=O)CSc2ccc(S(=O)(=O)N3CCCCC3)cc21 -17.1%, Cc1c(C(=O)N2CCN(c3ccccc3)CC2)sc2nc3n(c(=O)c12)CCC3 -11.7%, COc1ccc(CCNC(=O)c2ccc3c(c2)ncn3-c2ccc(C)cc2C)cc1OC -19%, CCc1ccc(S(=O)(=O)c2nnn3c2nc(NC(C)C)c2sccc23)cc1 -12.6%, COc1ccccc1CNC(=O)CCCn1c(=O)c2ccccc2n(CC(=O)Nc2c(C)cc(C)cc2C)c1=O -7.62%, COCCCNC(=O)c1ccc2c(c1)N(Cc1ccccc1)C(=O)c1ccccc1S2 -28.6%, O=C(CSc1nc(=O)n(CCN2CCOCC2)c2c1CCC2)Nc1ccccc1 -11%, CCOC(=O)c1sc(NC(=O)C2c3ccccc3Oc3ccccc32)c(C(=O)OCC)c1C -33%, CCOC(=O)c1cccnc1 -3.76%, CCn1cc(C(=O)NCc2ccccc2Cl)c(=O)c2cc(S(=O)(=O)N3CCc4ccccc4C3)ccc21 -17.6%, COc1ccc(C(=O)Nc2nnc(S(=O)(=O)N(CC(C)C)c3ccc(C)cc3)s2)cc1OC -19.1%, CN(C)CCOC(=O)COc1ccc(Cl)cc1 -0.926%, COC(=O)c1cccnc1-n1c(=O)c2cccnc2n(CC(=O)Nc2ccc(C)cc2C)c1=O -0.685%, O=C(Nc1cc(C(F)(F)F)ccc1Cl)c1cc(-c2ccc3c(c2)OCCO3)on1 4.46%, O=C(Nc1ccc(S(=O)(=O)Nc2ncccn2)cc1)c1ccccc1Cl -6.68%, Cc1ccc2c(c1)N(C(=O)CCC(=O)NCc1ccccc1Cl)CC(C)O2 (configuration not stated) -17.5%, CC(NC(=O)Cn1c(=O)oc2cc(S(=O)(=O)NCc3ccccc3)ccc21)c1ccccc1 (configuration not stated) -21.8%, Cc1ccccc1Nc1nc(-c2cccc(Cl)c2)c2c(n1)-c1ccccc1OC2 -11.7%, CC(=O)c1ccc(NC(=O)COc2ccccc2-c2nc(-c3cccc(C)c3)no2)cc1 -2.36%, Brc1c(NC2=NCCN2)ccc2nccnc12 -13%, COc1ccc(Nc2nc(N)c3cc(OC)c(OC)cc3n2)cc1 -3.78%, CC1CCc2c(sc(NC(=O)C3c4ccccc4Oc4ccccc43)c2C(=O)OC(C)C)C1 (configuration not stated) -16.3%, CCOC(=O)c1scc(-c2ccccc2)c1S(=O)(=O)Nc1cc(Cl)c(OC)cc1OC -36%, COC(=O)c1ccc(CSc2nc3c([nH]c4ccccc43)c(=O)n2-c2ccc(OC)cc2)o1 -27.3%, COc1cccc(CNC(=O)c2nn(-c3ccc(C)cc3)c(=O)c3c2c2ccccc2n3C)c1 -32.4%
